Data from publication PMC6919601, “Identification of Plasmodium dipeptidyl aminopeptidase allosteric inhibitors by high throughput screening” (PLoS ONE, 2019).
Out of some 110,000 compounds screened, about 230 (0.21%) showed an effect of 50% or more. The list shows a part of the results.

Biological target: DPAP1 (Plasmodium falciparum, UniProt Q8IIJ9)
Assay: primary screen, percent inhibition; read by cleavage of a fluorogenic dipeptide substrate; higher = more effect of the substance
Parameters: species or system P. falciparum D10 trophozoite lysates; single well
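Further: 30 min substrate incubation versus DMSO and 10 µM JCP410 controls.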

DPAP1, sequence (Q8IIJ9 whole entry, looked up): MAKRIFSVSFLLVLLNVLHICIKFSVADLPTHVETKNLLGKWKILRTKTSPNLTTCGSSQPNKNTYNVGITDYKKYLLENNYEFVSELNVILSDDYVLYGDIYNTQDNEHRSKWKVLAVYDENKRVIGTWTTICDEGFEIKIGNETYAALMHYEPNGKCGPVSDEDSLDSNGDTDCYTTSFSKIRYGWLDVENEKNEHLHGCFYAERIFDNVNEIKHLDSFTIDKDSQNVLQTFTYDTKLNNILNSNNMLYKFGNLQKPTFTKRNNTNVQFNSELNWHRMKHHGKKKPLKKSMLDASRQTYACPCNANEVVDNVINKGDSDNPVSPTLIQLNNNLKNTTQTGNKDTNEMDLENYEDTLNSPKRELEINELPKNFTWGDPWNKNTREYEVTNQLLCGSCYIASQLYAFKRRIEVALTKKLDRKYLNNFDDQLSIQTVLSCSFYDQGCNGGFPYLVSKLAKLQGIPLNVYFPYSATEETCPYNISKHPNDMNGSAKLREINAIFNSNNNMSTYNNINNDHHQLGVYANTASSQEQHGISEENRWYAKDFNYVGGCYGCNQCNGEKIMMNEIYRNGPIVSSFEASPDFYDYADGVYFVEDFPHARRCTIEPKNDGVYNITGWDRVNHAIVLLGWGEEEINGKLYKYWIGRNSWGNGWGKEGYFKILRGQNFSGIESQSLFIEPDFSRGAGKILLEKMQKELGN

Row | SMILES | % Inhibition @ 10 uM
1 | CCOc1ccc(/C(O)=C/C=N/c2ccc(C(C)=O)cc2)cc1 | -2.68%
2 | COc1ccccc1N1CCN(C2CC(=O)N(c3cccc(Br)c3)C2=O)CC1 (centres unmarked) | 4.11%
3 | COc1cc(C2CCCCC2C)cc(OC)c1OC (centres unmarked) | -3.83%
4 | CCOc1ccc(OCC)c(C2C(C#N)=C(N)Oc3[nH]nc(C)c32)c1 (centres unmarked) | -1.44%
5 | Cc1ccc(S(=O)(=O)N2CCCC(NC(=O)N3CCCCC3C)C2)cc1 (centres unmarked) | -4.67%
6 | Cc1cc(/C=C2\SC(Nc3ccccc3)=NC2=O)c(C)n1-c1cc(C(=O)O)cc(C(=O)O)c1 | 34.2%
7 | CC(C)C[C@H](NC(=O)OCc1ccccc1OC(F)F)C(=O)NCC#N | 1.71%
8 | CC(C)CNS(=O)(=O)c1ccc(CCC(=O)N2CCN(c3ccc(F)cc3)CC2)cc1 | -2.74%
9 | CSc1ccc(/C=C2/N=C(c3cccc4ccccc34)OC2=O)cc1 | -4.2%
10 | Cc1cc2ccccc2n1CCNC(=O)C(C)C | -1%
11 | CCOc1ccc(OCc2ccc(C(=O)N3N=C(C)CC3(O)C(F)(F)F)o2)cc1 (centres unmarked) | 0.709%
12 | Cc1cc(C)c(S(=O)(=O)Nc2cc(C(F)(F)F)ccc2Cl)c(C)c1 | -3.8%
13 | O=C1C=CC(=O)N1c1ccc(-c2ccccc2)cc1 | 0.716%
14 | O=C(NCCC1=CCCCC1)C1CCN(C(=O)c2ccc(Br)cc2)CC1 | -9.29%
15 | CCc1nnc(SCc2nc(-c3ccccc3)oc2C)c2cc3occc3n12 | 2%
16 | Cc1cccn2c(=O)c3cc(C(=O)N4CCN(C)CC4)c(=N)n(Cc4cccnc4)c3nc12 | 5.17%
17 | c1ccc(CCNCc2ccccc2)cc1 | -0.736%
18 | N#Cc1c(NC(=O)COc2ccc(F)cc2)sc2c1CCCC2 | 2.38%
19 | Cc1ccc2c(Cl)c(C(=O)Nc3cc(S(N)(=O)=O)ccc3C)sc2c1 | 4.32%
20 | COC(=O)c1ccc2c(c1)C(=O)N(c1ccccc1OC)C2=O | -5.36%
21 | CCOC(=O)c1cnn(-c2ccccc2)c1NC(=O)c1cccs1 | 9.47%

Row | SMILES | % Inhibition @ 10 uM
22 | Cc1cccc(C)c1NC(=O)C1CC=CCC1C(=O)O (centres unmarked) | -3.04%
23 | C=CCNC(=O)c1cc2c(=O)n3cc(C)ccc3nc2n(CCOC)c1=N | -3.27%
24 | COCCCNC(=O)Cn1cc(C(=O)c2ccccc2)c(=O)c2ccc(C)nc21 | -0.436%
25 | O=C(NCCN1CCOCC1)c1ccc(CS(=O)c2ccccc2Cl)o1 (centres unmarked) | 0.677%
26 | O=S1(=O)C(/C=N/Cc2ccc(F)cc2)=C(O)c2sccc2N1Cc1ccccc1 | -2.35%
27 | COc1ccccc1C(=O)Nc1sc(C)cc1C(=O)O | -7.9%
28 | COc1ccccc1NC(=O)C(C)Oc1ccc(F)cc1 (centres unmarked) | -1.79%
29 | C1CCN(c2nc3nonc3nc2N2CCCC2)C1 | 5.55%
30 | O=C(NCC1(c2ccccc2)CCCC1)C1(c2ccccc2)CCOCC1 | -2.59%
31 | NC(=O)COc1cccc(/C=C2/SC(Nc3cccc(C(=O)O)c3)=NC2=O)c1 | 2.01%
32 | O=C(CSc1nc(NCCc2ccccc2)c2ccccc2n1)NCc1ccccc1 | 4.02%
33 | CCCCOc1ccc(-c2ncc(C)cn2)cc1 | 1.88%
34 | Cc1ccc(NS(=O)(=O)c2cc(-c3onc(C)c3C)ccc2C)nc1 | -10.6%
35 | COc1ccc(CN2CCN(Cc3ccc(Br)cc3)CC2)c(OC)c1OC | -6.27%
36 | O=S(=O)(c1ccc(Cl)cc1)n1nc(-c2cccnc2)nc1NCc1ccccc1 | 2.21%
37 | CC(C)c1ccc(NC(=O)c2ccc3c(c2)OCO3)cc1 | -1.49%
38 | CCN(CC)c1ccc2c(c1)OC(N)=C(C#N)C2c1cccs1 (centres unmarked) | 3.96%
39 | Nc1cccc(-c2cc(C(=O)O)c3ccccc3n2)c1 | 2.41%
40 | CCC(=O)N1N=C2C3CCN(CC3)C2C1c1cc(OC)c(OC)c(OC)c1 (centres unmarked) | 6.31%
41 | CC1(C)CC(=O)C(=C2NC3(CCCCCC3)Cc3ccccc32)C(=O)C1 | 2.38%
42 | Cc1cc(Cl)ccc1OCC(=O)Nc1ccccc1N1CCOCC1 | -0.425%

Row | SMILES | % Inhibition @ 10 uM
43 | CN1CCN(c2cc(-c3ccc4ccccc4c3)nc3ccccc23)CC1 | -6.82%
44 | CCCNC(=O)c1cc2n(n1)C(C(F)(F)F)CC(c1ccc3c(c1)OCO3)N2 (centres unmarked) | 2.51%
45 | CCOC(=O)c1cc(-c2ccccc2)n(CCC(=O)NC2CCN(C(=O)OCC)CC2)c1C | 1.47%
46 | CCC[C@H](NC(=O)[C@H](CCS(=O)(=O)c1ccccc1)NC(=O)N1CCOCC1)C(=O)c1nc2ccccc2o1 | -10.7%
47 | CC(NC(=O)c1cc(-c2ccc3c(c2)OCO3)nc2ccccc12)C1CCCO1 (centres unmarked) | 1.25%
48 | CCOC(=O)c1sc(NC(=O)/C=C/c2ccco2)nc1C | 26.6%
49 | C=CCN1C(=O)N/C(=C/c2cc(C)n(-c3cc(C)cc(C)c3)c2C)C1=O | 1.71%
50 | CCNC(=O)CN(Cc1ccc(Br)cc1)S(=O)(=O)c1ccc(C)cc1 | -1.6%
51 | CCCc1cc(=O)oc2c3c(ccc12)OCN(Cc1cccc(OC)c1)C3 | 3.36%
52 | Cc1ccc2onc(CNC(=O)Nc3nc(C)cs3)c2c1 | -0.826%
53 | COc1cccc(S(=O)(=O)Nc2ccc(C(=O)Nc3ccc4sc(C)nc4c3)cc2)c1 | 0.583%
54 | O=C(C1c2ccccc2C(=O)N(C2CCCC2)C1c1cccs1)N1CCc2ccccc2C1 (centres unmarked) | 2.78%
55 | COc1ccc(Cl)cc1NC(=O)c1ccc(Cn2nc(C)cc2C)o1 | -5.57%
56 | S=C(Nc1ccccc1)NC1C2CN3CCN(C2)CC1(c1ccccc1)C3 (centres unmarked) | 1.57%
57 | CC(C)(C)c1ccc(-c2csc3nc4c5ccccc5c(N5CCOCC5)nn4c(=O)c23)cc1 | 1.84%
58 | Cc1cc(C)c2c(-n3cccc3)c(C(=O)NCCN(C)C)sc2n1 | 3.67%
59 | CCOc1ccccc1NC(=O)c1ccc(Br)o1 | 3.04%
60 | CC1CN(Cc2c(F)cccc2Cl)CC(C)O1 (centres unmarked) | 4.55%
61 | Cc1cccn2c(=O)c(/C=C(\C#N)C(=O)NC3CCS(=O)(=O)C3)c(Oc3ccccc3Cl)nc12 (centres unmarked) | 3.63%
62 | O=C(NCCCN1CCC(Cc2ccccc2)CC1)c1ccc2nc(N3CCOCC3)sc2c1 | -2.59%
